# Experimental data from PubChem BioAssay AID624170 (National Center for Advancing Translational Sciences (NCATS), 2012).
# Out of some 410,000 compounds screened, about 850 (0.21%) were called active. The shares of active, inactive and inconclusive entries below differ from those in the screen. Calls follow the shape of the dose curve; as a rule, active = well fitted inhibition curve with a large enough effect; inconclusive = small, poorly fitted or top-dose-only effect, or another doubt; inactive = no such curve, though single readings can be large or run the other way. Potencies of inconclusive entries are left out as doubtful fits.
# Molecular target: Glutaminase kidney isoform, mitochondrial (Homo sapiens) (UniProt O94925)
# Sequence of UniProt O94925 (O94925 whole entry, looked up, canonical isoform): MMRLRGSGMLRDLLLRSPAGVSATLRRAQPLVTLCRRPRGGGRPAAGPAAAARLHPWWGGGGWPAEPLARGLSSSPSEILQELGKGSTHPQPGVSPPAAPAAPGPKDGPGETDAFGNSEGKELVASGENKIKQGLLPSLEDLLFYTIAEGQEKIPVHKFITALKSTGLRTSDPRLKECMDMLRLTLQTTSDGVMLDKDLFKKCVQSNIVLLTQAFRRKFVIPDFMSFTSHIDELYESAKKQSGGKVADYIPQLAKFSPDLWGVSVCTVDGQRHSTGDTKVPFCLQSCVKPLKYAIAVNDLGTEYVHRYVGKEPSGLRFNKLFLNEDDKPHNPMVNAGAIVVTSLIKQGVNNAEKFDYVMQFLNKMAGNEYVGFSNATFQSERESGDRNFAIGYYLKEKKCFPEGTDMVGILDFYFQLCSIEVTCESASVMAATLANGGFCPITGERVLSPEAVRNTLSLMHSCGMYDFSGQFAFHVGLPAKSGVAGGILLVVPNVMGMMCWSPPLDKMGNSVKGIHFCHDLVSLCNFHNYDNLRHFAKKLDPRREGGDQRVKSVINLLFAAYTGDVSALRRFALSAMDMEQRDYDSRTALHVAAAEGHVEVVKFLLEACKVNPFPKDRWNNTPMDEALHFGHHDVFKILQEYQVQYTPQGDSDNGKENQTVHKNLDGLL
# Experiment: qHTS for Inhibitors of Glutaminase (GLS)
# Conditions: GLS enzymatic activity, qHTS titration; series mostly up to 45.5 µM
# Summary of the method: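 Enzyme dispensed in phosphate buffer (45 mM, pH 8.2, 0.02% Tween-20), compounds pinned in, then 1 mM L-glutamine solution and the glutamate oxidase–HRP–Amplex Red mix added; fluorescence read immediately and again after 30 min at room temperature.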
# Potency is read from the fitted curve at half-maximal effect; tags tell the direction and shape of the fitted curve.
row,SMILES,Potency
1,CCOc1ccc(CCNC(=O)CCn2c(=O)c3cccn3c3ccc(F)cc32)cc1OCC,inactive
2,S=C(NCCc1ccccc1)Nc1ccc(Nc2ccccc2)cc1,"inconclusive [inhibitor, single point]"
3,O=C(CN1C(=O)/C(=C/c2ccc(C(F)(F)F)cc2)Sc2ccccc21)NCCCN1CCOCC1,inactive
4,COc1cc(/C=N/N(c2ccccc2)c2ccccc2)ccc1O,"inconclusive [inhibitor, partial curve]"
5,CN(C)c1ccc(CN(Cc2ccco2)C(=O)COc2ccc(F)cc2)cc1,inactive
6,Cc1ccc(NC(=O)N2CC3CCCN3c3ccccc32)cc1C (stereo not given),inactive
7,O=C(Nc1nc(-c2ccccn2)cs1)c1ccccc1-n1cnnn1,"inconclusive [inhibitor, single point]"
8,CC(=O)C[C@H]1c2ccccc2S(=O)(=O)N1c1ccccc1,inactive
9,CC(=O)Nc1cccc(C(=O)N/N=C/c2cccc(C)n2)c1,"inconclusive [inhibitor, partial curve, poor fit]"
10,COc1cc(/C=N/Nc2nc(-c3ccc(S(=O)(=O)N(C)C)cc3)cs2)ccc1O,inactive
11,C(=N\Nc1nc2ccccc2s1)/c1ccccn1,"inconclusive [inhibitor, single point]"
12,O=C(CSc1nncn1-c1ccccc1)Nc1ccc(N2CCOCC2)cc1,"inconclusive [inhibitor, single point]"
13,CNc1oc(Cc2ccccc2)nc1S(=O)(=O)c1ccccc1,"inconclusive [inhibitor, single point]"
14,COCCN(CC(=O)NC1CCCCC1)C(=O)/C=C/C(=O)c1ccc(OC)cc1O,inactive
15,Cn1cc(/C=C2\SC(=S)N(N3CCOCC3)C2=O)c2ccccc21,"inconclusive [inhibitor, single point]"
16,O=c1cc(-c2ccc(O)cc2)oc2c(O)c(O)c(O)c(O)c12,active: 11.2 µM
17,CCOc1ccc(NC(=O)CN2CCN(CC(=O)Nc3ccc(N(CC)CC)cc3)CC2)cc1,inactive
18,O=C(CC1SC(=O)N(c2ccccc2)C1=O)Nc1ccc(Br)cc1 (stereo not given),"inconclusive [inhibitor, partial curve]"
19,O=C(ONC1=NCCCCC1)c1cccc([N+](=O)[O-])c1,active: 22.4 µM
20,Cc1ccc(/C=N/n2c(-c3ccncc3)n[nH]c2=S)s1,"inconclusive [inhibitor, partial curve]"
21,COc1ccc(CCNC(=O)COC(=O)c2cc(S(=O)(=O)NCc3ccccc3)ccc2O)cc1OC,"inconclusive [inhibitor, full curve]"
22,CCOC(=O)c1cc(-c2ccccc2)sc1NC(=O)c1ccc(OC)cc1,"inconclusive [inhibitor, single point]"
23,O=C(Cn1sc2ccccc2c1=O)NC12CC3CC(CC(C3)C1)C2,"inconclusive [inhibitor, partial curve, poor fit]"
24,CCCCNC(=O)c1ccc2nc(CC)c(N(CC)CCN(C)C)n2c1,inactive

row,SMILES,Potency
1,NNC(=S)Nc1cc(S(=O)(=O)N2CCOCC2)ccc1N1CCOCC1,"inconclusive [inhibitor, partial curve, poor fit]"
2,Oc1ccc(/C=C/c2nc(-c3ccccc3O)n(-c3ccccc3)n2)c(O)c1,"inconclusive [inhibitor, single point]"
3,COc1cc(C(c2c(C)[nH][nH]c2=O)c2c(C)[nH][nH]c2=O)cc([N+](=O)[O-])c1O,"inconclusive [inhibitor, partial curve, poor fit]"
4,O=C(O)c1ccccc1NS(=O)(=O)c1ccc2c3c(cccc13)C(=O)N2,"inconclusive [inhibitor, single point]"
5,O=C(CCS(=O)(=O)c1ccc(F)cc1)Nc1nc(-c2ccncc2)cs1,"inconclusive [inhibitor, single point]"
6,COc1ccc(/C=N/NC(=O)c2cccnc2)cc1O,"inconclusive [inhibitor, partial curve, poor fit]"
7,O=C(NCC1CCCO1)c1cc2ccccc2cc1O (stereo not given),"inconclusive [inhibitor, partial curve, poor fit]"
8,Cc1oc(C(=O)O)cc1COc1cccc2cccnc12,"inconclusive [inhibitor, single point]"
9,c1ccc(Oc2cc(-c3ccccc3)ncn2)cc1,inactive
10,CC(=O)Nc1cc2c(c(Cl)c1Cl)-c1ccccc1C2=O,inactive
11,COc1ccc(Nc2cc(C(=O)NCCCN(C)Cc3ccccc3)c3ccccc3n2)c(OC)c1,inactive
12,CCOC(=O)CSC1=Nc2ccccc2C2=NC(CC(=O)NCc3ccc4c(c3)OCO4)C(=O)N12 (stereo not given),"inconclusive [inhibitor, full curve, poor fit]"
13,Cc1ccc(C(=O)C(C(=O)/C=C/c2ccccc2)=C2SCCCS2)cc1,"inconclusive [inhibitor, single point]"
14,CN1CCCN(C(c2ccccc2)c2ccc(Cl)cc2)CC1 (stereo not given),inactive
15,CC1=Nc2ccccc2/C1=C/c1sc(=N)n(-c2nccs2)c1O,inactive
16,CC(=O)NC(c1ccccc1)c1cc([N+](=O)[O-])c2cccnc2c1O (stereo not given),inactive
17,CC1Cc2ccccc2N1C(=O)COC(=O)c1c2c(nc3ccccc13)CCCCC2 (stereo not given),inactive
18,Cc1cccc(-n2c(C)c(-c3ccccc3)[nH]c2=S)c1,"inconclusive [inhibitor, single point]"
19,CS/C(=C\C(=O)c1ccco1)Nc1ccccc1Cl,"inconclusive [inhibitor, single point]"
20,Cc1ccc(OCC(=O)O/N=C(\N)Cc2ccc(Cl)cc2)cc1,"inconclusive [inhibitor, single point]"
21,COc1cccc(NC(=O)Nc2ccc3nc(N4CCN(C)CC4)cc(C)c3c2)c1,"inconclusive [inhibitor, single point]"
22,COCc1nc2ccccc2n1Cc1ccccc1C,"inconclusive [inhibitor, single point]"
23,S=C1NNC2(NN1)C1CC3CC(C1)CC2C3,"inconclusive [inhibitor, partial curve, poor fit]"
24,CC(=O)c1c(C)[nH]c(C(=O)Nc2ccc(Cl)c(S(=O)(=O)N(C)C)c2)c1C,inactive

row,SMILES,Potency
1,Cn1c(=O)c2c([nH]c(=S)n2Cc2ccc(Cl)cc2)n(C)c1=O,"inconclusive [inhibitor, single point]"
2,COc1ccc(NC(=O)C2CCN(C(=O)c3ccc(OC)cc3)CC2)cc1,"inconclusive [inhibitor, single point]"
3,CCC1NC(C(=O)O)Cc2c1[nH]c1ccccc21 (stereo not given),"inconclusive [inhibitor, single point]"
4,O=C(Cn1c(C(F)(F)F)nc2ccccc21)N/N=C/c1ccco1,"inconclusive [inhibitor, partial curve, poor fit]"
5,Cc1ccccc1NC(=O)CSc1ccsc1[N+](=O)[O-],"inconclusive [inhibitor, single point]"
6,CNc1ccc(Cl)cc1S(=O)(=O)c1ccccc1[N+](=O)[O-],inactive
7,O=C(NC1CCCCC1)c1cc(-c2ccc(Cl)cc2)on1,inactive
8,COc1ccc(-n2nc3c(N4CCC(C(=O)NCc5cccc(F)c5)CC4)nnc(C)c3c2C)cc1,"inconclusive [inhibitor, partial curve]"
9,COc1ccc2nc(SCC(=O)Nc3cc(C)on3)c(C#N)cc2c1,"inconclusive [inhibitor, full curve]"
10,N#CC1=C(N)OC2=C(CCc3ccccc32)C1c1ccccc1 (stereo not given),inactive
11,COc1ccccc1-n1c(CNC(=O)c2ccco2)nnc1SCC(=O)Nc1cc(C)ccc1C,"inconclusive [inhibitor, partial curve, poor fit]"
12,O=C(NCCCSc1ccccc1)c1cc(Cl)ccc1O,inactive
13,N#C/C(=N\Nc1cccc(C(F)(F)F)c1)C(=O)c1csc(-c2cccnc2)n1,"inconclusive [inhibitor, single point]"
14,COc1ccc(-c2csc(N(CCCN(C)C)C(=O)c3ccc(C)cc3)n2)cc1,inactive
15,O=C(O)c1ccc(N/N=C/c2ccc(OC(=O)c3ccccc3Cl)cc2)cc1,"inconclusive [inhibitor, single point]"
16,COc1cc(/C=C/c2sc3ccccc3[n+]2CCCS(=O)(=O)[O-])ccc1O,"inconclusive [inhibitor, partial curve]"
17,Cc1ccc(CN2CCN(Cc3cnc(C)[nH]3)CC2CCO)cc1 (stereo not given),"inconclusive [inhibitor, single point]"
18,CSC1SCC2C(=O)N(C)C(C(C)C)C(=O)OCC(NC(=O)c3cnc4ccccc4n3)C(=O)NC(C)C(=O)N(C)C1C(=O)N(C)C(C(C)C)C(=O)OCC(NC(=O)c1cnc3ccccc3n1)C(=O)NC(C)C(=O)N2C (stereo not given),"inconclusive [inhibitor, partial curve]"
19,Cc1ccc2nc(C)cc(Nc3ccc4c(c3)OCCO4)c2c1,inactive
20,O=C(N/N=C/c1cc(Cl)cc([N+](=O)[O-])c1O)NC12CC3CC(CC(C3)C1)C2,active: 8.91 µM
21,O=C(NCC1CCCCC1)c1cc([N+](=O)[O-])ccc1Cl,"inconclusive [inhibitor, single point]"
22,CC1CCc2c(nc3sc4c(c3c2N)CCCC4)C1 (stereo not given),inactive
